# Data: PubChem BioAssay AID1030 (National Center for Advancing Translational Sciences (NCATS), 2008)
# Hit rate of the full screen: of about 220,000 compounds, about 16,000 (7.3%) were called active. The shares of active, inactive and inconclusive entries below differ from those in the screen. Calls follow the shape of the dose curve; as a rule, active = well fitted inhibition curve with a large enough effect (not every such curve was filed as active); inconclusive = small, poorly fitted or top-dose-only effect, or another doubt; inactive = no such curve, though single readings can be large or run the other way. No potency is given beside an inconclusive call; the fits are too rough.
# Target: Aldehyde dehydrogenase 1A1 (Homo sapiens) (UniProt P00352)
# UniProt P00352, sequence (P00352 whole entry, looked up): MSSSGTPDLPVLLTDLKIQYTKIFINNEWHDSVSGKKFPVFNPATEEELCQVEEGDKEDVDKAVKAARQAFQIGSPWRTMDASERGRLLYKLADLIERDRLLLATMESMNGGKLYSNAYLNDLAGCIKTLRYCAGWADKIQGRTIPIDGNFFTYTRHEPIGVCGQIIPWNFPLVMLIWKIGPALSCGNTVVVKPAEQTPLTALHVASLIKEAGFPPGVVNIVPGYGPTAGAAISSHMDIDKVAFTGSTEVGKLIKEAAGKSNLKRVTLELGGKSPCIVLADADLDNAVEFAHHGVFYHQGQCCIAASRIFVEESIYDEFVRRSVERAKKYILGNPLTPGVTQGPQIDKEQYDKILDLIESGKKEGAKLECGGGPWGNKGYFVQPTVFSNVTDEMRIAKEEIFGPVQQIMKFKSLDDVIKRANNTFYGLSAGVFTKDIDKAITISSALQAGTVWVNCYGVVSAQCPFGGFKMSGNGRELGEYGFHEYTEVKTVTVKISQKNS
# Assay: qHTS Assay for Inhibitors of Aldehyde Dehydrogenase 1 (ALDH1A1);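 as to activity, negative = inhibition: plate controls were no enzyme wells and a reference inhibitor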
# Details: Purified ALDH1A1, NADH fluorescence, propionaldehyde substrate; series mostly up to 75.3 µM
# Potency is read from the fitted curve at half-maximal effect; tags tell the direction and shape of the fitted curve.
Compound,Potency,"activity, negative = inhibition"
COc1ccc(-c2nc3c(c4c2C[C@H](c2ccccc2)OC4)CN(C(=O)N[C@@H](C)c2ccccc2)CC3)c(C)c1,active: 3.55 µM,–
Nc1cccnc1Sc1ccc(Cl)cc1,"inconclusive [inhibitor, single point]",–
NC(=O)c1c(NC(=O)C2CCCO2)sc2c1CCCC2 (stereo not given),"inconclusive [inhibitor, full curve]",–
O=C(CNC(=O)c1cccc(F)c1)N/N=C/c1cc(Br)ccc1OC(=O)/C=C/c1ccco1,"inconclusive [inhibitor, single point]",–
CCOC(=O)c1sc(NC(=O)CSc2nnc(C)s2)c(C(=O)OCC)c1C,"inconclusive [inhibitor, single point]",–
Cn1c(=O)nc2n(Cc3ccccc3)c3cccc(Cl)c3cc-2c1=O,"inconclusive [inhibitor, single point]",–
CCCC(=O)N1c2ccc(-c3csc(N)n3)cc2CC1C (stereo not given),"inconclusive [inhibitor, single point]",–
CN1OC2C(=O)N(c3ccccc3)C(=O)C2C1c1ccc(F)cc1 (stereo not given),active: 8.91 µM,–
Cc1c(/N=C/c2ccco2)n(Cc2ccccc2)c2ccccc12,"inconclusive [inhibitor, single point]",–
O=C(C/C=N\OCc1ccc([N+](=O)[O-])cc1)Nc1ccc(Br)cc1,"inconclusive [inhibitor, single point]",–
Cc1c(Br)c([N+](=O)[O-])nn1CC(=O)NCc1cccs1,inactive,–
CCOC(=O)CNC(=O)Nc1nnc(-c2ccc(OCC)cc2)o1,"inconclusive [inhibitor, single point]",–
Cc1ccc(S(=O)(=O)Nc2ccccc2-c2ccccc2NS(=O)(=O)c2ccc(C)cc2)cc1,inactive,–
COc1ccc(S(=O)(=O)Nc2c(C)n(C)n(-c3ccccc3)c2=O)cc1,"inconclusive [inhibitor, partial curve]",–
CC(=O)Oc1c(C)cc(OCC(O)CNC(C)C)c(C)c1C (stereo not given),inactive,–
CN1C=C/C(=C\c2cc[n+](C)c3ccccc23)c2ccccc21,"inconclusive [inhibitor, single point]",–
Oc1c(C=Nc2cccc3cccnc23)sc2ccccc12,"inconclusive [inhibitor, single point]",–
O=C(/C=C/c1ccc(O)cc1)c1cccs1,"inconclusive [inhibitor, partial curve]",–
CCCCCCCCCCCCCCCC(N)=O,inactive,–
COc1cccc(NC(=O)c2ccccc2-c2nc(-c3cccc(C)c3)no2)c1,"inconclusive [inhibitor, single point]",–
Cc1ccc2c(c1)-c1cc(C)nn1C(c1sccc1C)N2 (stereo not given),"inconclusive [inhibitor, single point]",–
O=C(COC(=O)C1CC2C=CC1C2)Nc1cccc(S(=O)(=O)N2CCCCCC2)c1 (stereo not given),"inconclusive [inhibitor, single point]",–
O=C(CN1CCC(NC(=O)Cc2ccccc2)CC1)Nc1ccccc1Br,inactive,–

Compound,Potency,"activity, negative = inhibition"
Cc1ccc2sc(NC(=O)c3ccc(N4C(=O)CCC4=O)cc3)nc2c1C,"inconclusive [inhibitor, partial curve]",–
C[C@@](N)(Cc1c[nH]c2ccccc12)C(=O)O,–,inactive: -2.55% [at 13.5 µM]
Cc1ccc(/C=C2/NC(=O)N(Cc3ccc(Br)cc3)C2=O)o1,active: 12.6 µM,–
O=S1(=O)C=C(Oc2ccc(F)cc2)c2ccccc21,"inconclusive [inhibitor, single point]",–
CCCCn1c2ccccc2c2nnc(SCC(=O)NC3=NN=C(c4ccccc4)CS3)nc21,"inconclusive [inhibitor, single point]",–
CCSc1nc2c(c(=O)[nH]1)C(c1ccccn1)C1=C(CC(C)(C)CC1=O)N2 (stereo not given),"inconclusive [inhibitor, partial curve]",–
Cc1cccn2c(=O)c3cc(C(=O)NC(C)c4ccccc4)c(=N)n(CCCn4ccnc4)c3nc12 (stereo not given),"inconclusive [inhibitor, partial curve]",–
CCn1c2ccccc2c2cc(NC(=O)CSc3nnc(-c4ccc(OC)c(OC)c4)n3N)ccc21,"inconclusive [inhibitor, single point]",–
O=C1NC(=NCc2ccccc2)S/C1=C/c1ccc(O)cc1,inactive,–
COCCn1c(SCC(=O)c2ccc3c(c2)OCCO3)nnc1C(C)C,active: 10 µM,–
O=C(CSc1cn(CCNC(=O)c2cccs2)c2ccccc12)NCc1ccccc1,"inconclusive [inhibitor, partial curve]",–
CCOC(=O)N1CCN(c2cc(C)c([N+](=O)[O-])cc2F)CC1,"inconclusive [inhibitor, single point]",–
Cn1nnc2c(NCc3ccco3)nccc21,"inconclusive [inhibitor, partial curve]",–
Cc1cc(C)c2c(NC(=S)NC(=O)c3ccccc3)n[nH]c2n1,"inconclusive [inhibitor, single point]",–
c1ccc2[nH]c(-c3ccnc4ccccc34)nc2c1,"inconclusive [inhibitor, partial curve]",–
COc1ccc(C(=O)Nc2ccccc2C(=O)O)cc1Cl,"inconclusive [inhibitor, partial curve]",–
O=C1/C(=C/c2ccccn2)COc2ccccc21,inactive,–
O=C(Nc1ccc2nn(-c3ccccc3)nc2c1)c1cccnc1,"inconclusive [inhibitor, single point]",–
COc1ccc(S(=O)(=O)NCCSCc2ccccc2C)cc1Br,active: 25.1 µM,–
Cc1ccc(C2C(C#N)=C(N)Oc3c2c(=O)n(C)c(=O)n3C)cc1 (stereo not given),inactive,–
Cc1cccc(NC(=S)N(CCN2CCOCC2)Cc2cc3cc4c(cc3[nH]c2=O)OCO4)c1,"inconclusive [inhibitor, single point]",–
CCOC(=O)OCC1OC(c2ccccc2)C=CC1Oc1ccc2oc(=O)cc(C)c2c1 (stereo not given),"inconclusive [inhibitor, partial curve]",–
